Measurements reported in PubChem BioAssay AID743279 (National Center for Advancing Translational Sciences (NCATS), 2014).
In all, about 360,000 compounds went through this assay and about 17,000 (4.7%) were called active. This list was built around the results that the source calls inconclusive (neither active nor inactive); the mix of calls is not that of the screen. Cut-off read from the data, not from the text of the source: active = activity change below about -50%; inconclusive = mostly about -30% to -49%; inactive = weaker than that.

Assay: qHTS for Inhibitors of Inflammasome Signaling: IL-1-beta AlphaLISA Primary Screen
Settings: THP-1 LPS/ATP IL-1B secretion, 16 h; at 57.5 µM, hits give low values
Summary of the method: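 THP-1 cells pretreated 1 hr with compounds (up to 57.5 uM final), then stimulated with LPS (250 ng/mL final) plus ATP (1.25 mM final); secreted IL-1B measured by AlphaLISA after 16 hr, decreased signal indicating inhibition.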
% is set by controls: 0 for no effect and ±100 for the full control effect.

Activity change, inactive:
Cc1ccc(S(=O)(=O)Nc2ccccc2-c2ccccc2NS(=O)(=O)c2ccc(C)cc2)cc1 6.66%
COc1ccc(NC(=O)COC(=O)CNC(=O)COc2ccccc2)cc1OC -0.182%
Cc1ccsc1C(=O)OC(C)C(=O)NC1CCCCC1C (stereo unspecified) -6.06%
O=C(NNC(=O)c1cccc2ccccc12)c1ccc(-c2ccccc2)cc1 -20.1%
CC1CCCCN1C(=O)COC(=O)C1CCN(S(=O)(=O)c2c(Cl)cccc2Cl)CC1 (stereo unspecified) 3.48%
CCOC(=O)C1=C(C)NC(=O)NC1c1ccccc1OCc1c(F)cccc1Cl (stereo unspecified) -9.1%
O=C(NCc1nc2ccccc2[nH]1)C1=C[C@H](C2CC2)C[C@H](OCCCCO)O1 22.9%
CCn1c(SCC(=O)Nc2ccc(NC(C)=O)cc2)nc2c1c(=O)n(C)c(=O)n2C 8.95%
CCOC(=O)C1CSC(CC(=O)Nc2ccc(Cl)cc2)C(=O)N1 (stereo unspecified) 3.23%
O=C(CC[C@H]1O[C@@H](n2ccc(=O)[nH]c2=O)[C@H](O)[C@@H]1O)NCCc1c[nH]c2ccccc12 -3.66%
Cc1cccc(-n2c(-c3ccncc3)n[nH]c2=S)c1 12.4%
OC(c1ccc(CN2CCCCC2)cc1)c1ncc(-c2ccccc2F)[nH]1 (stereo unspecified) -3.37%
Cc1ccc2oc(-c3ccc(NC(=O)c4ccc5c(c4)OCO5)cc3)nc2c1 0.558%
O=C(O)CN=C(Nc1cc(Cl)cc(Cl)c1)NC(c1ccccc1)c1ccccc1 -7%
O=C(CSCc1cccc(Br)c1)N=Nc1c(O)[nH]c2ccccc12 12.6%
O=C(NC1CCCCC1)C(c1ccnc2ccccc12)n1c(=O)c(-c2cc3ccccc3[nH]2)nc2ccccc21 (stereo unspecified) -11.8%
Cc1cc(=O)[nH]c(SCC(=O)Nc2ccc(Br)cc2)c1C#N 36.5%
COCC1CCN(C(=O)c2ccc3oc(C(C)C)nc3c2)C1 (stereo unspecified) 0.277%
CC(C)(C)C1CCC(C(=O)Nc2ccc(N3CCOCC3)cc2N2CCOCC2)CC1 (stereo unspecified) -20.8%
O=C(CCCCCCCC(=O)c1ccccc1)c1ccccc1 0%
CC(C)Cn1c(N)c(C(=O)COC(=O)CCc2nc3ccccc3s2)c(=O)n(C)c1=O 17.3%
CCOCCCNC(=O)c1ccc(CN2CCc3ccccc3C2)cc1 38.9%
CCN(CC(=O)Nc1ccc(Br)cc1)C(=O)c1nc2nc(C)cc(C)n2n1 11.8%
O=C(O)c1ccccc1C(=O)c1ccc(-c2ccccc2)cc1 -13%
COc1ccc2[nH]c(=O)c(CN(Cc3cccs3)Cc3nnnn3C(C)(C)C)cc2c1 -7.59%
C=CCSc1nnc(NC(=O)c2ccc(NC(C)=O)cc2)s1 1.35%
Cc1ccc(C(=O)NNC(=O)c2ccoc2C)s1 1.53%

Activity change, active:
CCN(CC)CCCNC(=O)c1oc2ccc(S(=O)(=O)N3CC(C)CC(C)C3)cc2c1C (stereo unspecified) -51.5%
NS(=O)(=O)c1ccc(NC(=O)COC(=O)c2ncc(Cl)c(Cl)c2Cl)cc1 -62.3%
CC1CCN(c2oc(-c3ccco3)nc2S(=O)(=O)c2ccccc2)CC1 -52.6%
Cc1ccc2cc(NC(=O)c3ccc(C(C)(C)C)cc3)ccc2n1 -101%
Brc1ccccc1OCCNCc1ccccc1 -80.5%
CCOC(=O)CSc1nc2ccc(C)cc2n2cnnc12 -55.9%
CN(CC(=O)Nc1ccc(F)cc1)C(=O)c1cn(-c2ccccc2)nc1-c1cccs1 -59.8%
CCCCN(CC)CCCNC(=O)C1CCN(c2ncnc3c2sc2cccc(F)c23)CC1 -97.2%
C=CCN=c1scc(-c2ccc3c(c2)NC(=O)CO3)n1/N=C(\C)c1ccccn1 -63.6%
CCOC(=O)Cn1cc(/C=C(\C#N)C(=O)N2CCOCC2)c2ccccc21 -95.2%
COC(=O)c1cc(C)[nH]c2c(C)cc3nc4ccccc4c3c12 -97.7%
COc1cc(C=C2C(=O)C=CC2=O)ccc1O -113%
COc1ccc(/C=C2/C(=O)ON=C2c2ccccc2)cc1OC -102%
CC(C)[C@H](CN1CCC[C@H]1CN1C(N)=NC[C@H]1C(C)C)N1C[C@@H](Cc2ccccc2)N(CCCC2CCCC2)C1=N -59.8%
CC(C)C[C@@H](CN1CCC[C@@H]1CN1C(=S)NC[C@@H]1Cc1ccc(O)cc1)N1C[C@H](Cc2ccc(O)cc2)N(CC2CCCCC2)C1=S -80.5%
Fc1ccc(CNc2nc(-c3ccccc3)nc3ccccc23)cc1 -62.1%
O=C1CC(/C=C/c2ccccc2)=Nc2ccccc2N1 -50.2%
O=C(CCl)N1N=C(c2ccco2)CC1c1ccco1 (stereo unspecified) -99.2%

Activity change, inconclusive:
O=[N+]([O-])c1cccc(Cl)c1NCCNS(=O)(=O)c1ccccc1 -41.4%
CCn1c(O)c(N=NC(=O)CNc2ccc(C)cc2)c2ccccc21 -40.9%
CCn1c(SC(C)C(=O)OC)nnc1-c1c[nH]c2ccccc12 (stereo unspecified) -43.4%
Cc1oc(-c2ccc(Cl)cc2)nc1CN1CCC(C(=O)NCC2CCCO2)CC1 (stereo unspecified) -48.2%
CN(CC(=O)Nc1ccc(N2CCOCC2)cc1)CC(=O)Nc1ccc(N2CCOCC2)cc1 -31.5%
C(=N\N1CCN(Cc2cccc3ccccc23)CC1)/c1cccs1 -38.1%
O=C(NCc1ccccc1)[C@H]1C[C@@H]1[C@H](NP(=O)(c1ccccc1)c1ccccc1)c1ccccc1 -42.8%
CN(C)C(=O)/C(=C/c1ccc(-c2cccc([N+](=O)[O-])c2)o1)NC(=O)c1ccccc1 -45.5%
N#C/C(=C\c1ccc(OC(F)F)cc1)C(=O)N1CCCCC1 -43.2%
CCC(=O)N1N=C(c2ccc(C)o2)CC1c1ccc(N(C)C)cc1 (stereo unspecified) -32.2%
COc1ccc(-c2ccc(=O)n(CC(=O)Nc3ccc(C(=O)NC4CC4)cc3)n2)cc1OC -31.6%
COCCn1c(SCC(=O)N2CCCc3ccccc32)nc2cccnc21 -33.1%
COCCCNC(=O)Cn1cc2c(n1)CCCCC2 -34.8%
Cc1cccc(N(C)c2cc(C)nc3ncnn23)c1 -32.9%
CC(C)/C(C=O)=C(/NC1CCCCC1)c1ccccc1 -34.4%
CC(C)=C1CCC(C)CC1=NNC(N)=S (stereo unspecified) -38.7%
O=C1CSC(=Nc2ccc(Cl)cc2)N1Cc1ccco1 -38.7%
COc1ccc(C(c2nnnn2Cc2ccccc2)N2CCN(C/C=C/c3ccccc3)CC2)cc1 (stereo unspecified) -35.9%
CCOC(=O)c1cc2c(ccn2C)n1Cc1ccccc1C -34.4%
CC(C)(C)c1cc(C(=O)Nc2ccc(F)cc2)n(Cc2ccc(F)cc2)n1 -42.3%
COc1ccc(C2c3ccc4ccccc4c3Oc3ncn(Cc4ccco4)c(=N)c32)cc1OC (stereo unspecified) -48.1%
Cc1ccc(Cl)cc1N1CCN(Cc2nc3c(c(=O)[nH]c(=O)n3C)n2Cc2ccccc2F)CC1 -43.8%
Cc1c(C(=O)NCCc2ccccc2)oc2ccc(S(=O)(=O)N3CCC4(CC3)OCCO4)cc12 -31.8%
CCC(CO)Oc1cc(NC(=O)c2ccccc2F)c2ncn(C(C)C)c2c1 (stereo unspecified) -47.7%
Cc1cc(C)c(NC(=O)Cn2c(=O)n(-c3ccc(CC(=O)NCC4CCCO4)cc3)c(=O)c3ccccc32)c(C)c1 (stereo unspecified) -39.8%
Cc1ccc(-c2ccc(NC(=O)C3C4C=CC(C4)C3C(=O)O)cc2)o1 (stereo unspecified) -36.7%
CCOc1cccc2c1OC(c1cc(OC)c(OC)c(OC)c1)N1N=C(c3ccc(C)o3)CC21 (stereo unspecified) -36.5%
CCCCOC(=O)c1ccc(NC(=O)c2nn(C)cc2Br)cc1 -37.8%
COc1ccccc1C(=O)Nc1ccc2c(c1)CCCN2C(=O)c1cccs1 -32.9%
CCO[C@@H]1OC(C(=O)NCc2nc3ccccc3[nH]2)=C[C@H](c2cn(C(C)=O)c3ccccc23)[C@H]1CCCO -38.4%
CCc1ccc(N=CC2=C(O)CC(c3ccco3)CC2=O)cc1 (stereo unspecified) -42.6%
N#Cc1ccccc1OCC(=O)Nc1ccc2c(c1)OCO2 -48.4%
Cc1ccc(OCC(=O)Nc2ccc3oc(=O)ccc3c2)cc1 -31.1%
O=C(CCN1C(=O)/C(=C/c2ccccc2F)SC1=S)NCCc1ccc(O)cc1 -44.2%
Clc1ccc(-c2nc(N3CCCCC3)nc3ccccc23)cc1 -44.7%
COc1ccc(-n2nnnc2SCC(=O)NCCc2ccccc2)cc1OC -38.5%
CC(=O)c1ccc(OCc2cc(C(=O)N(C)CCOc3ccc(C)cc3)no2)cc1 -44.2%
CC(C)(CO)NCc1cccc(OCc2ccc(Cl)cc2)c1 -32.5%
CCOC(=O)Cc1ncccc1C(=O)Nc1ccc(OC(F)(F)F)cc1 -35.5%
O=C(CNc1ccccc1)N/N=C/c1ccc([N+](=O)[O-])o1 -40.5%
O=C(Nc1ccccc1)OCc1cc(-c2ccccc2Cl)on1 -38.1%
